From PubChem BioAssay (NCI)
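Results reflect a 48-hour exposure of cells in 96-well plates to compound at five concentrations. At the GI50, growth is halved. The concentration for full growth arrest is given as TGI.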

Tested on: NCI-H322M lung
Experiment: NCI tumour cell line growth inhibition, 48 h

**Q.** What does the source list for O=C(NCCCNc1cc(-c2cn(-c3ccccc3)nc2-c2cccc(O)c2)ccn1)Nc1cccc(C(F)(F)F)c1?
**A.** GI50: 4.24 µM; TGI: 9.32 µM
